Here are results for 47 molecules from the supplement of paper PMC4723716.

The test deals with Plasmodium falciparum NF54 stage V gametocytes. As to the kind of experiment: viability index relative to DMSO control (fraction); higher = less gametocyte killing. The settings on record: 2.5 µM, incubation time: 72 h. A digest of the protocol: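 Gametocytes (P. falciparum NF54, stage V) were treated with compound at 2.5 µM for 72 hr at 37°C in low oxygen, in serum-free medium at 0.75% gametocytemia and 1.25% hematocrit. Counts of 20–70 µm2 red particles, taken from one field per well after MitoTracker Red CMXRos with saponin, were divided by the plate mean of solvent-only wells. This ratio is the viability index.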

Setting [1] is: library set: Broad Institute DOS.

± gives the uncertainty stated by the source. In all, about 9,900 compounds were measured (“viability index relative to DMSO control”: median about 1, lowest 2% from about 0.85 on). Some of the results follow.

Take `CC(C)(C)[S@](=O)N1Cc2cc(C(=O)N[C@H]3CCN(Cc4ccccc4)C3)nc(-c3cccc(-c4cccnc4)c3)c2[C@@H]1CCO`: under setting [1], the viability index was determined as 1.12 ± 0.13. Regarding `CO[C@H](CN(C)S(=O)(=O)c1ccc(F)cc1)[C@H](C)CN(Cc1ccccc1Cl)[C@H](C)CO`, the viability index under setting [1] was determined as 1.02 ± 0.04. In the case of `CCS(=O)(=O)NCC[C@H]1CC[C@@H](NS(=O)(=O)c2ccccc2C)[C@@H](CO)O1`, under setting [1], the viability index worked out at 0.9036 ± 0.004. Under setting [1], `COc1ccc(cc1)S(=O)(=O)N1C[C@@]2(C1)CN([C@@H](CO)c1c2c2ccc(OC)cc2n1C)C(=O)CN(C)C` showed a viability index of 0.95 ± 0.059. Molecule `C[C@H](CO)N1C[C@H](C)[C@H](CN(C)S(=O)(=O)c2cn(C)cn2)Oc2cc(C#Cc3cccc(F)c3)ccc2S1(=O)=O` displayed a viability index under setting [1] of 0.9878 ± 0.0014. For `CNC[C@H]1OCCCC[C@@H](C)Oc2ccc(N)cc2C(=O)N([C@@H](C)CO)C[C@H]1C`, the viability index under setting [1] is 1.08 ± 0.018. Take `CCS(=O)(=O)N1[C@H](C#N)[C@@H](c2ccc(C#Cc3ccccc3F)cc2)[C@@H]1CO`: under setting [1], the viability index was 1.04 ± 0.019.

Take `CCCNC(=O)N1[C@@H]2c3ccc(-c4ccc(OC)cc4)c(=O)n3C[C@H]1[C@H](CO)[C@H]2C(=O)NC1CCC1`: the viability index under setting [1] is 1.06 ± 0.013. Molecule `O=C1CCC(=O)N[C@H](c2ccccc2)C/C=C\CCN1` showed a viability index under setting [1] of 1.05 ± 0.044. As to `OC[C@H]1Nc2ccc(-c3cccc(F)c3)cc2[C@@H]2[C@H]1CCN2Cc1ccc(F)cc1`, under setting [1], the viability index is 1.04 ± 0.017.

The molecule `COCC(=O)N1CC[C@@]2(CC1)CN([C@H](CO)c1[nH]c3cc(OC)ccc3c21)S(C)(=O)=O` showed a viability index under setting [1] of 0.932 ± 0.053.

On to `CCS(=O)(=O)N1CC[C@@]2(CC1)CN[C@@H](CO)c1c2c2ccc(OC)cc2n1C`, for which the viability index under setting [1] was 0.978 ± 0.034. Regarding `COc1ccc2c3c([C@H](CO)N(C[C@]33CCN(Cc4cccc(F)c4)CC3)C(=O)C3CC3)n(C)c2c1`, under setting [1], the viability index turned out to be 1.02 ± 0.0091. Under setting [1], `N#C[C@H]1[C@@H](c2ccc(-c3cccc(F)c3)cc2)[C@H](CO)N1C(=O)CN1CCOCC1` gave a viability index of 1.08 ± 0.032. With `COc1ccccc1CN1[C@@H]2Cn3c(ccc(C4=CCCC4)c3=O)[C@H]1[C@@H](C(=O)N(C)C)[C@@H]2CO`, the viability index under setting [1] was determined as 1.1 ± 0.023. `Cc1cccc(S(=O)(=O)N2C[C@H]3[C@@H](c4ccccc42)[C@H](CO)N3Cc2ccc3c(c2)OCO3)c1` displayed a viability index under setting [1] of 1.01 ± 0.012. As to `O=C(C[C@@H]1CC[C@H]2[C@@H](COC[C@H](O)CN2C(=O)Nc2ccc(F)cc2)O1)NC1CCC1`, the viability index under setting [1] was found to be 0.971 ± 0.012.

The molecule `COc1cccc(-c2ccc3c(c2)[C@@H]2[C@@H](CCN2S(=O)(=O)C2=NC(C)C=N2)[C@H](CO)N3C)c1` (some centres not stated) gave a viability index under setting [1] of 0.982 ± 0.024. Molecule `C[C@@H]1CN([C@H](C)CO)C(=O)c2cccc(NC(=O)c3ccncc3)c2O[C@H]1CN(C)Cc1ccc2c(c1)OCO2` displayed a viability index under setting [1] of 0.966 ± 0.042. Still for that read-out and setting: with `C[C@@H]1CN([C@H](C)CO)C(=O)c2ccccc2-c2ccccc2CO[C@H]1CN(C)C(=O)[C@@H]1CCCN1C` the figure was 1.03 ± 0.03; with `CN(C)C(=O)c1cccc(-c2ccccc2[C@@H]2[C@@H](CO)N(C(=O)C3CCCCC3)[C@H]2C#N)c1`, 1.15 ± 0.1; with `CO[C@H](CN(C)C(=O)C1CCOCC1)[C@H](C)CN(C(=O)Nc1ccc(C(F)(F)F)cc1)[C@H](C)CO`, 0.968 ± 0.034.

On to `CN1C(=O)c2cc(NS(=O)(=O)c3cccc(F)c3)ccc2OC[C@H]2O[C@H](CC(=O)N3CCc4ccccc4C3)CC[C@@H]21`, for which the viability index under setting [1] amounted to 0.9956 ± 0.0048. Turning to `COc1ccc(C[C@@H]2CCn3nncc3COC[C@H](CC(C)C)NC2=O)cc1`, under setting [1], the viability index is 1.04 ± 0.016. Regarding `Cc1ccccc1-c1ccc2c(c1)O[C@@H](CN(C)C(=O)Nc1ccc(C(F)(F)F)cc1)[C@@H](C)CN([C@@H](C)CO)S2(=O)=O`, the viability index under setting [1] was 0.838 ± 0.12. With `COc1cccc(-c2ccc([C@@H]3[C@@H](CO)N4C(=O)CN(C(=O)c5cccnc5)C[C@H]34)cc2)c1`, the viability index under setting [1] was 0.985 ± 0.039.

Under setting [1], `CC(C)[C@H]1C/C=C\CCNC(=O)[C@H](C)CC(=O)N1` came in with a viability index of 1.025 ± 0.0092. Under setting [1], `CC(C)NC(=O)N1CC2(C1)[C@H](c1ccccc1)[C@@H](CO)N2C(=O)C1CCOCC1` displayed a viability index of 1.07 ± 0.11.

In the case of `CCC(=O)N1[C@@H](C#N)[C@H](c2ccccc2-c2ccccc2)[C@@H]1CO`, the viability index under setting [1] came out at 1.08 ± 0.096. Turning to `O=C(Nc1cc(F)ccc1F)N1CC(=O)N2[C@@H](CO)[C@H](c3ccc(/C=C/c4ccccc4)cc3)[C@@H]2C1`, the viability index under setting [1] came to 1.08 ± 0.034. For `CN1C(=O)c2cc(NC(=O)c3ccc(C(F)(F)F)cc3)ccc2OC[C@H]2O[C@H](CC(=O)NCc3ccc4c(c3)OCO4)CC[C@@H]21`, the viability index under setting [1] is 0.963 ± 0.079.

Under setting [1], `C[C@@H]1CN([C@H](C)CO)C(=O)c2cccc(N(C)C)c2O[C@H]1CN(C)C(=O)Nc1ccc(F)cc1` registered a viability index of 1 ± 0.1. On to `C/C=C/c1ccc([C@H]2[C@@H](CO)N3CCCCN(S(=O)(=O)c4ccc(OC)cc4)C[C@H]23)cc1`, for which the viability index under setting [1] came out at 0.951 ± 0.026. For `O=C(C[C@@H]1CC[C@@H](NC(=O)C2CCOCC2)[C@@H](CO)O1)NCC1CCCCC1`, under setting [1], the viability index worked out at 1.13 ± 0.06. On to `COC(=O)C[C@@H]1CC[C@H]2[C@@H](COC[C@H](O)CN2S(=O)(=O)c2ccccc2OC)O1`, for which, under setting [1], the viability index was found to be 1.06 ± 0.015. As to `O=C1C[C@H](c2ccccc2)C(=O)N[C@H](c2ccccc2)C/C=C\C[C@@H](c2ccccc2)N1`, the viability index under setting [1] turned out to be 0.971 ± 0.049. As to `COc1ccc2c3c([nH]c2c1)[C@H](CO)N(Cc1nccs1)C[C@]31CCN(Cc2cccnc2)CC1`, under setting [1], the viability index was 0.946 ± 0.081. Under setting [1], `COc1cccc(-c2ccc([C@H]3[C@@H](CO)N4C(=O)CNC[C@@H]34)cc2)c1` had a viability index of 1.05 ± 0.045. Molecule `C[C@H]1CN([C@@H](C)CO)C(=O)Cc2cc(NC(=O)CCC(F)(F)F)ccc2O[C@@H]1CN(C)CC1CC1` gave a viability index under setting [1] of 0.98 ± 0.017.

`CC(C)NC(=O)N1[C@H](CO)[C@@H](c2ccccc2)[C@@H]1CN(C)C(=O)c1cccnc1` registered a viability index under setting [1] of 0.966 ± 0.068. As for `O=C(O)C[C@H]1C[C@@H]2c3cc(NC(=O)Cc4ccncc4)ccc3O[C@@H]2[C@H](CO)O1`, the viability index under setting [1] amounted to 1.05 ± 0.076.

With `CNC[C@@H]1Oc2c(N)cccc2C(=O)N([C@H](C)CO)C[C@@H]1C`, the viability index under setting [1] came out at 0.978 ± 0.067. `COc1ccc(NC(=O)N2C[C@@H](O)COC[C@@H]3O[C@@H](CC(=O)N4CCCCC4)CC[C@H]32)cc1` came in with a viability index under setting [1] of 1.07 ± 0.068. For the molecule `COc1ccccc1C#Cc1ccc([C@H]2[C@@H](C#N)N(C(=O)C3CCCC3)[C@H]2CO)cc1`, where the note is “library set: Broad Institute Blood Stage”, the viability index turned out to be 0.583 ± 0.18. For the molecule `COCC(=O)Nc1ccc2c(c1)[C@H]1C[C@H](CC(=O)N[C@H](C)c3ccccc3)O[C@H](CO)[C@H]1O2`, under setting [1], the viability index was 1.091 ± 0.0092.

As to `O=C(CC1CC1)N1CC(=O)N2[C@H](CO)[C@@H](c3ccc(/C=C/c4ccccc4)cc3)[C@@H]2C1`, the viability index under setting [1] worked out at 1.02 ± 0.029. As to `CN1CCN(C(=O)C[C@@H]2CC[C@H]3[C@@H](COc4ccc(NC(=O)C5CCOCC5)cc4C(=O)N3C)O2)CC1`, the viability index under setting [1] is 1.09 ± 0.06.
